The full ranking holds about 33,000 sequences; the median of “E-score (-0.5 to 0.5)” is about -0.043, and the highest 2% start at about 0.37. Some of the results follow.
Target: T1, Upc2 (UniProt Q12151)
T1 sequence: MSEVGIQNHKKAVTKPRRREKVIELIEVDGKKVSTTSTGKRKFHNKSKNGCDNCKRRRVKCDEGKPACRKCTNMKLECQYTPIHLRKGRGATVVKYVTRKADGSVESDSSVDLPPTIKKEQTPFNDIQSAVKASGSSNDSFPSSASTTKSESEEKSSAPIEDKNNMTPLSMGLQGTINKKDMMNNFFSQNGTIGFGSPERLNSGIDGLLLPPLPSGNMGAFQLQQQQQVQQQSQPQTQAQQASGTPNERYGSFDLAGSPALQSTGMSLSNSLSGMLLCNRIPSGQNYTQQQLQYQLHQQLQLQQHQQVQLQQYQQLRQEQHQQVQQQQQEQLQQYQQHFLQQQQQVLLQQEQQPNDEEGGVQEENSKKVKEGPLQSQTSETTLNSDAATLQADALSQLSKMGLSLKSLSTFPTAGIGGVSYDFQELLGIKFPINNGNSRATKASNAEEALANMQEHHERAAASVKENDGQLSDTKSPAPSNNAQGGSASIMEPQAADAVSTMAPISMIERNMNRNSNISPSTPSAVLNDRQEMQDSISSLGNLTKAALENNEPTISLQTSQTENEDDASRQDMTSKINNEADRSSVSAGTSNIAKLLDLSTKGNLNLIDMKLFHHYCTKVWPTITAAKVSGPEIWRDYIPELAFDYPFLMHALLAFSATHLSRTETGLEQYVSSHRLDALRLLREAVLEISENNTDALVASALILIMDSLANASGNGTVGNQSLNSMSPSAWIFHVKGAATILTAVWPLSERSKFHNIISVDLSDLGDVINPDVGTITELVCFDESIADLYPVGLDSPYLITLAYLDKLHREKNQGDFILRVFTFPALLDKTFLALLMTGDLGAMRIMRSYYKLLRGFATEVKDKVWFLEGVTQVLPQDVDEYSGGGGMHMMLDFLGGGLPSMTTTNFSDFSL
Assay: PBM E-score (8-mer binding enrichment) (E-score (-0.5 to 0.5)); higher = stronger / more preferred TF binding; most listed sequences are background and not binding sites
Details: protein concentration: 200 nM; construct: GST-full length
Protocol: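 Universal 'all 10-mer' protein binding microarrays (Agilent AMADID 015681) probed with GST-tagged S. cerevisiae TFs (full-length or DBD) made by in vitro transcription/translation (PURExpress), about 100-200 nM. Bound TF was detected with fluorescent anti-GST. Each ungapped 8-mer (which stands for itself and its reverse complement) is scored by the PBM enrichment score (E-score), a modified Wilcoxon-Mann-Whitney statistic from -0.5 to +0.5, computed with the Universal PBM Analysis Suite. Scale: above 0.35 generally sequence-specific binding.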

Row | Sequence | PBM E-score
1 | ACTATCGG | -0.0107
2 | CAATGTCA | 0.0141
3 | CTTCCGTA | 0.311
4 | ACGTAATC | 0.0625
5 | TCACGGCA | -0.167
6 | CCGAGGCG | 0.129
7 | AGTGACGG | -0.228
8 | ACTTTGCC | -0.0954
9 | AGAGAAAA | -0.104
10 | ATTGGACG | -0.0372
11 | GTATATAA | 0.298
12 | GTCAGTGA | -0.0712
13 | TCCGATCA | -0.017
14 | ACATATAT | 0.0896
15 | ACGACGGC | 0.333
16 | CACTACGG | -0.133
17 | AGTGTTTA | 0.0568
18 | CAGCTGCC | -0.218
19 | AGCCAAGA | -0.159
20 | CCCTTTGC | -0.00867
21 | ATTTCGGC | 0.00601
22 | ATTTAAAT | 0.0767
23 | GGATTGCC | -0.0654
24 | ATGACTCG | 0.0492
25 | ACACGAGC | 0.273

Row | Sequence | PBM E-score
26 | ACAATCCA | -0.0823
27 | AACTTAGC | -0.171
28 | AGATAAAG | -0.0496
29 | CATTCGCG | 0.128
30 | CGACGGGC | 0.152
31 | CTAACGGC | -0.0778
32 | CAAGCATG | -0.098
33 | CAATTCAA | -0.0733
34 | ACCTTAAT | -0.139
35 | AATCGGGC | -0.0317
36 | CTAGTACC | -0.148
37 | GTAGGATA | -0.0462
38 | ACGAGAAG | 0.277
39 | AATCCACG | -0.0217
40 | TAAGCATA | 0.155
41 | ATGAAGTC | -0.149
42 | CAGTCCAA | -0.285
43 | ACACGAGA | 0.244
44 | ATGGGCCA | -0.0834
45 | AATATAAC | 0.0166
46 | AAATGGTT | -0.00064
47 | CGCCCGAC | -0.034
48 | AGCGGACA | 0.0699
49 | ACATAAAC | 0.233
50 | AATAAACC | 0.0364

Row | Sequence | PBM E-score
51 | ATTAACGC | 0.143
52 | TCGCCAGA | -0.147
53 | AGACAGCA | -0.0983
54 | CATACTCG | 0.238
55 | ACCGAAAG | 0.108
56 | AAGTGTTA | -0.0352
57 | TACTACAA | 0.0682
58 | ACGTGATA | 0.0836
59 | AAAAAAGA | -0.107
60 | CTACTCGA | 0.165
61 | TCACCGAA | -0.117
62 | AATTAGCA | 0.0793
63 | GGTGTCTA | -0.0324
64 | AGGGTAGC | -0.213
65 | GGGTGAAA | -0.159
66 | AGATTAAG | -0.119
67 | AGTCGACG | 0.0955
68 | ATTAACTC | -0.021
69 | TGGCGCAA | 0.0234
70 | GCCGTGAA | -0.0188
71 | AGAGCACC | -0.173
72 | TCAATACA | -0.115
73 | AATGAAAG | -0.0345
74 | AAGAGTCA | -0.11
75 | AGCGAGTG | 0.204

Row | Sequence | PBM E-score
76 | GTGTGCTA | -0.00345
77 | ATAACACC | 0.0522
78 | CATGCGTC | -0.117
79 | ATATCTCG | 0.187
80 | AGCCGAGC | 0.0562
81 | GAGCGAAC | 0.173
82 | CGGTATGA | -0.0944
83 | GAGCGTCA | -0.069
84 | ATAAGCAG | 0.0183
85 | ACCCGGGC | -0.17
86 | ACTATACC | 0.172
87 | CGTACGGA | 0.382
88 | CCTAGAGG | -0.25
89 | GTTGACCA | -0.0491
90 | AAGTTACT | -0.0859
91 | TGTTCTAA | 0.0668
92 | AACGGGAC | 0.171
93 | CACCCCGA | -0.194
94 | GCACGTCC | -0.0769
95 | CGCGCGCA | 0.158
96 | ATCCTCGC | 0.0716
97 | CCCTCTAA | -0.181
98 | CAACTCGC | 0.21
99 | ATAGCGAA | 0.0983
100 | GTCACAGA | 0.0181

Row | Sequence | PBM E-score
101 | CACGTACG | 0.346
102 | TGAGAGAA | -0.0463
103 | AGACGGTC | -0.102
104 | CTTATTTA | 0.149
105 | TAGGCCGA | -0.253
106 | CTGTTTTA | 0.0439
107 | CAACATGC | 0.0797
108 | CGAGTGGA | 0.0933
109 | AAAAGGTC | -0.0486
110 | GCACCGGA | 0.0523
111 | CCAATACC | -0.108
112 | CGTCCGTA | 0.315
113 | ACCTAGAT | -0.166
114 | CTTGTCCA | -0.18
115 | CAACAATC | 0.0112
116 | CAAAAAAA | -0.0129
117 | CATCAGCG | 0.0238
118 | TATATGGA | -0.0267
119 | ACGTGTTC | -0.0353
120 | TACGCTAA | 0.22
121 | AGTTCCAC | -0.0526
122 | ATCCAAAC | 0.184
123 | CGGCGCGC | 0.0167
124 | AACCAGCC | -0.161
125 | AGATTCAC | -0.143

Row | Sequence | PBM E-score
126 | CCAAGTGG | -0.186
127 | GTATTGCA | 0.0375
128 | TATATTCA | 0.167
129 | TCTGTGAA | -0.0917
130 | CCCGATAA | 0.0463
131 | CAGTTATA | 0.0276
132 | TAGTACCA | -0.148
133 | CGCTCGGA | 0.163
134 | AACCCCTC | -0.0538
135 | CCGTAGAC | 0.0288
136 | ACCTTCCT | -0.172
137 | CAATAACG | 0.0742
138 | AGGGGGGC | -0.271
139 | AACTAGCC | -0.217
140 | GAAGCGGC | -0.00253
141 | GACGTGAA | 0.0104
142 | ACAGCAAG | 0.0422
143 | ACGGCCCC | -0.172
144 | CTAGTCGC | -0.128
145 | CAGGAACA | -0.0158
146 | CTAGACAA | -0.228
147 | CCTTGCCC | -0.056
148 | AGCCAAGG | -0.257
149 | AAAACTTA | 0.0259
150 | TCCGTCAA | -0.117

Row | Sequence | PBM E-score
151 | ATAACTTG | -0.0841
152 | ATTTACAA | 0.0516
153 | AATTTCAG | -0.178
154 | AATAACCG | 0.199
155 | GGTCCGAA | 0.0775
156 | ACACCAAC | -0.115
157 | GCGGAACC | -0.0453
158 | ACGCTACA | 0.0651
159 | TCACAGGA | -0.175
160 | CCATCTTC | -0.0895
161 | TACATATA | 0.109
162 | AGACTAGA | -0.0378
163 | TGTTGTAA | 0.0709
164 | GTTTGTTA | 0.188
165 | AAACTGCG | -0.0684
166 | ATGCGCGG | -0.0498
167 | ATTGATCG | 0.0802
168 | ATGGCAGA | 0.0488
169 | ATGATGCG | -0.0322
170 | CCGCGCCG | 0.0343
171 | CCCGAGTC | -0.0115
172 | CAACGTGA | -0.211
173 | CACACCAC | -0.00598
174 | AATCCTTC | 0.0236
175 | TACGTTCA | 0.247

Row | Sequence | PBM E-score
176 | AGACAGAG | -0.0792
177 | ATGCAGCC | -0.135
178 | CGGAATGA | -0.178
179 | AAGCGAGG | 0.296
180 | CGACACAC | 0.201
181 | CAAAACCG | 0.0509
182 | GATCGAGA | 0.117
183 | GGACTCGA | -0.149
184 | TACCACGA | 0.0124
185 | CGAAGCTC | -0.129
186 | ATACGGTC | 0.418
187 | ATTGCGCA | -0.0745
188 | ATTGGTTC | 0.0237
189 | GACCGCTA | 0.039
190 | TAACATAA | 0.113
191 | CCTTCATC | -0.148
192 | GGTATAAA | 0.217
193 | GAATGCTA | -0.00971
194 | GGCTTCTA | -0.117
195 | ACACCACC | -0.179
196 | GCCATTCC | -0.326
197 | ATTCTGTG | -0.0539
198 | GATATATA | 0.075
199 | CGCTATGC | -0.0206
200 | TGCTCTAA | -0.0995

Row | Sequence | PBM E-score
201 | AGGCGCAG | -0.3
202 | CGGCAACC | -0.0857
203 | AGGGAAAT | -0.188
204 | ACTACTTC | -0.149
205 | CAGTCTAC | -0.11
206 | GAGTGATA | 0.16
207 | AACGCCAA | 0.198
208 | ATGGCCGG | -0.301
209 | CCCGCTCA | 0.0129
210 | AGAAGGAG | -0.238
211 | AGGATTGA | -0.212
212 | CTGGGCGC | -0.222
213 | ACCCAATC | -0.0848
214 | AGAACCAA | -0.00064
215 | GACTGGCA | -0.298
216 | AGCAATCG | 0.188
217 | CAATTGGG | -0.145
218 | CCTTCGCG | 0.00088
219 | CGCATGGA | -0.148

Source: the supplement of paper PMC3334620
